{
  "source": "PubChem BioAssay AID1768",
  "about": "(National Center for Advancing Translational Sciences (NCATS), 2009)",
  "note": "Hit rate of the full screen: of about 270,000 compounds, about 620 (0.23%) were called active. Inconclusive means that the source gave no clear call. Such entries were picked first, then a sample of the others. Calls come from the whole dose curve; as a rule, active = well fitted inhibition curve with a large enough effect in the polarisation, with a control signal flat (not every such curve was filed as active); inconclusive = small, poorly fitted or top-dose-only effect, or effect the other way, or a change in a side signal; inactive = no such curve, though single readings can be large or run the other way; the % refers to the polarisation. A potency beside an inconclusive call is a rough fit, not a confirmed value. A note “side channel” means that the fit belongs to a control or component signal, not to the main read-out. Potency is the fitted concentration of half-maximal effect; tags give direction and shape of the fitted curve or compound fluorescence and quenching.",
  "data": [
    {"target": "Menin (Homo sapiens) (UniProt O00255)", "sequence (O00255 whole entry, looked up)": "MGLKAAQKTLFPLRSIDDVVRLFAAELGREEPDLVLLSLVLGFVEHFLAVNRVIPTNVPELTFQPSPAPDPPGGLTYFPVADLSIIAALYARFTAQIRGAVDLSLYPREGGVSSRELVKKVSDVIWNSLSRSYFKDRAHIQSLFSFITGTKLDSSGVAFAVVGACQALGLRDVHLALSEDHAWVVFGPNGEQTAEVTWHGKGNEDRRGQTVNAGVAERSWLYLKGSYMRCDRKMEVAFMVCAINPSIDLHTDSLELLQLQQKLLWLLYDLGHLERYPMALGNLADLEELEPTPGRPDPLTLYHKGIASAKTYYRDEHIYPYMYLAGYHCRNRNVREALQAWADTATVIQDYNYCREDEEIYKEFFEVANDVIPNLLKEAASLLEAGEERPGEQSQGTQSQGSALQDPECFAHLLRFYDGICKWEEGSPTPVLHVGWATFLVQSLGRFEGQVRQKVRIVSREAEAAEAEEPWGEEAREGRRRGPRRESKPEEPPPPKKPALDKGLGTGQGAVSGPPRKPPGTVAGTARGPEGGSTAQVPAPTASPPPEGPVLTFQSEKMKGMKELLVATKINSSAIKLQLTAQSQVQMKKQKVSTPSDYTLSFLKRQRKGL", "assay": "qHTS Assay for Inhibitors Targeting the Menin-MLL Interaction in MLL Related Leukemias: Competition With Texas Red Labeled MLL-derived Mutant Peptide", "conditions": "fluorescence polarization; series mostly up to 61.6 µM", "values": [
      {"compound": "O=C(NNc1ncc(C(F)(F)F)cc1Cl)c1c(Cl)cccc1Cl", "Potency": "inconclusive: 6.31 µM [inhibitor, partial curve]"},
      {"compound": "COc1cccc(Cn2c(C3CC3)nc3ccc(NC(=O)c4ccco4)cc3c2=O)c1", "Potency": "inconclusive: 25.1 µM [quencher, side channel, single point]"},
      {"compound": "O=C([O-])[C@@H]1[O][Sb+]([O][Sb+]2[O][C@H]([C@H](O)CO)[C@H](O)[C@H](C(=O)[O-])[O]2)[O][C@H]([C@H](O)CO)[C@@H]1O", "Potency": "inactive"},
      {"compound": "Cc1ccc(C(=O)NC(=S)Nc2cccc3c(C)cc(C)nc23)cc1", "Potency": "inconclusive: 28.2 µM [quencher, side channel, single point]"},
      {"compound": "COc1ccc(CC(=O)Nc2ccc(-c3nc4cc(C)ccc4o3)c(O)c2)cc1OC", "Potency": "inconclusive: 28.2 µM [inhibitor, single point]"},
      {"compound": "C=CCNCC(=O)N1N=C(c2ccc3ccccc3c2)CC1c1ccc(OC)cc1", "note": "(centres undefined)", "Potency": "inconclusive: 2.51 µM [fluorescent, side channel, full curve, poor fit]"},
      {"compound": "COC(=O)c1ccc(N2NC(=O)/C(=C/c3cc(OC)c(OC)c(OC)c3)C2=O)cc1", "Potency": "inconclusive: 28.2 µM [quencher, side channel, single point]"},
      {"compound": "CCOc1ccccc1CN(CCc1ccc2c(c1)OCO2)Cc1ccccn1", "Potency": "inconclusive: 10 µM [fluorescent, side channel, partial curve]"},
      {"compound": "O=C(O)c1ccc(N=Nc2c(-c3ccccc3)[nH]oc2=O)cc1", "Potency": "inconclusive: 31.6 µM [quencher, side channel, single point]"},
      {"compound": "COc1cc(C(=O)O[C@H]2C/C(C)=C/CC[C@]3(C)O[C@@H]3C(O)C2C(C)C)cc(OC)c1OC", "note": "(some centres undefined)", "Potency": "inconclusive: 7.94 µM [fluorescent, side channel, partial curve]"},
      {"compound": "COC(=O)CCC(NC(=O)OCc1ccccc1)C(=O)NC(CC(C)C)C(=O)OC", "note": "(centres undefined)", "Potency": "inconclusive: 25.1 µM [fluorescent, side channel, single point]"},
      {"compound": "CCOC(=O)C1=C(C)N=c2s/c(=C/c3ccc(OCC(=O)O)cc3)c(=O)n2C1c1cc(OC)c(OC)c(OC)c1", "note": "(centres undefined)", "Potency": "inconclusive: 39.8 µM [quencher, side channel, single point]"},
      {"compound": "O=C(COc1ccc(C(=O)Nc2ccc(Cl)cc2)cc1)NCc1ccccc1", "Potency": "inconclusive: 39.8 µM [inhibitor, single point]"},
      {"compound": "COc1ccc(CCC(=O)Nc2cc(Cl)ccc2N2CCN(C)CC2)cc1", "Potency": "inactive"},
      {"compound": "C=CCc1cccc(CNc2nc3ccccc3n2CCC)c1O", "Potency": "inconclusive: 14.1 µM [quencher, side channel, partial curve]"},
      {"compound": "CO/N=C(\\CS(=O)(=O)Cc1ccc(OC)cc1)c1ccc(Cl)cc1", "Potency": "inconclusive: 39.8 µM [inhibitor, single point]"},
      {"compound": "O=[N+]([O-])c1ccc(N/N=C/c2ccc[nH]2)cc1", "Potency": "inconclusive: 3.16 µM [quencher, side channel, partial curve]"},
      {"compound": "Cc1snc(SCC(=O)N/N=C(\\N)COc2cccc(C(F)(F)F)c2)c1C#N", "Potency": "inconclusive: 39.8 µM [fluorescent, side channel, single point]"},
      {"compound": "CC1CCN(c2ccc(NC(=S)NC(=O)c3ccc(-c4cccc([N+](=O)[O-])c4)o3)cc2)CC1", "Potency": "inconclusive: 2.82 µM [quencher, side channel, full curve]"},
      {"compound": "CCOc1ccccc1NC(=O)CN(c1ccc(C)cc1)S(=O)(=O)c1c(C)noc1C", "Potency": "inconclusive: 0.708 µM [inhibitor, full curve, poor fit]"},
      {"compound": "CC12CCC=CC1C(c1ccc3ccccc3c1Br)N(Cc1ccccc1)C2=O", "note": "(centres undefined)", "Potency": "inconclusive: 2.24 µM [fluorescent, side channel, full curve, poor fit]"},
      {"compound": "CCCCc1ccc(-n2nnnc2SCC(=O)Nc2cc(OC)c([N+](=O)[O-])cc2C)cc1", "Potency": "inactive"},
      {"compound": "CCCCC(=O)Nc1ccc(C(=O)NNC(=O)c2ccco2)cc1", "Potency": "inactive"},
      {"compound": "CCc1ccc(CNC(=O)CCCn2c(=O)c3cccn3c3cccnc32)cc1", "Potency": "inconclusive: 14.1 µM [fluorescent, side channel, partial curve]"},
      {"compound": "Cc1ccc2nc(-c3ccncc3)cc(C(=O)Nc3ccc(OC(F)F)cc3)c2c1", "Potency": "inconclusive: 2.51 µM [quencher, side channel, full curve, poor fit]"},
      {"compound": "Cc1ccc(Oc2ccc(S(=O)(=O)NCC(C)(C)N3CCOCC3)cc2)cc1", "Potency": "inconclusive: 14.1 µM [fluorescent, side channel, partial curve]"},
      {"compound": "CC(C)(C)c1ccc(Cn2c(=O)cnc3ccccc32)cc1", "Potency": "inconclusive: 0.631 µM [inhibitor, full curve, poor fit]"},
      {"compound": "COc1cc(/C=N/NC(=O)c2ccncc2)ccc1OC(=O)c1ccccc1Cl", "Potency": "inconclusive: 15.8 µM [quencher, side channel, partial curve]"},
      {"compound": "O=C1CC(c2ccc(F)cc2)Cc2nc(NCc3ccco3)ncc21", "note": "(centres undefined)", "Potency": "inactive"},
      {"compound": "COc1cccc2cc(C(=O)C3=C(O)C(=O)N(c4cc(C)on4)C3c3cccs3)oc12", "note": "(centres undefined)", "Potency": "inconclusive: 15.8 µM [quencher, side channel, partial curve]"},
      {"compound": "COc1ccc(O[C@H]2C=C[C@@H](c3ccccc3)O[C@@H]2COC(=O)CC/C(C)=N/O[C@@H](C)CN2CCCCc3nc(C)c(C)cc32)cc1", "Potency": "inconclusive: 2.82 µM [fluorescent, side channel, full curve, poor fit]"},
      {"compound": "CCOc1ccccc1O[C@@H](c1ccccc1)[C@@H]1CNCCO1", "Potency": "inconclusive: 25.1 µM [fluorescent, side channel, partial curve, poor fit]"},
      {"compound": "O=C(CCSc1nc2ccccc2s1)N/N=C/c1c(O)ccc2ccccc12", "Potency": "inconclusive: 12.6 µM [quencher, side channel, partial curve]"},
      {"compound": "COc1ccc(/C=N/OCC(=O)Nc2nc3ccccc3s2)cc1OC", "Potency": "inconclusive: 39.8 µM [quencher, side channel, single point]"},
      {"compound": "Cc1c(O)ccc(C(=O)CN2C(=O)c3ccccc3C2=O)c1O", "Potency": "inconclusive: 25.1 µM [quencher, side channel, single point]"},
      {"compound": "Cc1ccc(CNc2ncc(-c3ccccc3)n2C)o1", "Potency": "inconclusive: 28.2 µM [inhibitor, partial curve]"},
      {"compound": "CC1(C)CCC(C)(C)c2cc(C(=O)Nc3ccc(C(=O)O)cc3)ccc21", "Potency": "inconclusive: 8.91 µM [quencher, side channel, partial curve]"},
      {"compound": "Cc1ccc(-c2ccnc(=S)[nH]2)cc1", "Potency": "inconclusive: 5.62 µM [inhibitor, full curve, poor fit]"},
      {"compound": "O=C(CC(NC(=O)c1ccccc1)c1ccccc1)Nc1ccc(F)c(F)c1", "note": "(centres undefined)", "Potency": "inconclusive: 39.8 µM [fluorescent, side channel, single point]"},
      {"compound": "CS(=O)(=O)N1N=C(c2ccco2)CC1c1ccc(Cl)cc1Cl", "note": "(centres undefined)", "Potency": "inconclusive: 22.4 µM [quencher, side channel, single point]"},
      {"compound": "O=C(O)C1C2C=CC3(CN(c4cccc(C(F)(F)F)c4)C(=O)C13)O2", "note": "(centres undefined)", "Potency": "inconclusive: 39.8 µM [inhibitor, single point]"},
      {"compound": "O=C(NC(Nc1nc2ccc([N+](=O)[O-])cc2s1)(C(F)(F)F)C(F)(F)F)c1ccccc1Cl", "Potency": "inconclusive: 11.2 µM [quencher, side channel, partial curve]"},
      {"compound": "CCc1ccc2[nH]c(O)c(N=Nc3nc(-c4ccccc4)cs3)c2c1", "Potency": "inconclusive: 28.2 µM [quencher, side channel, partial curve]"},
      {"compound": "COc1ccc(CC(=O)Nc2ccc(-c3noc(-c4ccc(Cl)cc4)n3)cc2)cc1", "Potency": "inconclusive: 20 µM [inhibitor, partial curve]"},
      {"compound": "O=C(Nc1ccc(Cl)cc1)Nc1cccc(C(=O)O)c1", "Potency": "inconclusive: 14.1 µM [quencher, partial curve]"},
      {"compound": "CCOc1cc(N2CCOCC2)c(OCC)cc1NC(=O)c1ccc(C)s1", "Potency": "inconclusive: 25.1 µM [inhibitor, partial curve]"},
      {"compound": "CC(=O)Oc1ccc(-c2ccc(C(=O)Nc3cccc(S(=O)(=O)N4CCOCC4)c3)cc2)cc1", "Potency": "inconclusive: 3.16 µM [quencher, side channel, full curve]"},
      {"compound": "CC(C)OC(=O)c1cc(Cl)c(=O)n(Cc2ccc(Cl)cc2Cl)c1", "Potency": "inconclusive: 17.8 µM [fluorescent, side channel, partial curve]"},
      {"compound": "CN1CC[n+]2c(CN3C(=O)c4ccccc4C3=O)csc21", "Potency": "inconclusive: 6.31 µM [inhibitor, partial curve]"},
      {"compound": "O=C(Nc1ccc(Cl)cc1)Nc1ccc(-c2cnco2)cc1", "Potency": "inconclusive: 7.08 µM [quencher, side channel, single point]"},
      {"compound": "Nc1ncnc2oc(-c3ccco3)c(-c3ccco3)c12", "Potency": "inconclusive: 28.2 µM [quencher, side channel, partial curve]"},
      {"compound": "Cc1[nH]c2ccccc2c1C(=O)COC(=O)c1c(-c2c(F)cccc2Cl)noc1C", "Potency": "inconclusive: 14.1 µM [inhibitor, single point]"},
      {"compound": "O=C(Nc1ccccc1C(=O)Nc1ccncc1)c1ccc([N+](=O)[O-])cc1", "Potency": "inconclusive: 31.6 µM [quencher, side channel, single point]"},
      {"compound": "CC(C)Cc1nn2c(N)c(/C=C3\\C=Nc4ccccc43)c(=O)nc2s1", "Potency": "inconclusive: 14.1 µM [quencher, side channel, partial curve]"}
    ]}
  ]
}
